Source: the supplement of paper PMC10126150
Sequences with one replicate were seen in a single cluster, so their values are uncertain.

Tested on: ATP
Assay: switch fluorescence ratio, 500 uM ATP over buffer (Cy3 cluster intensity, sum of 5 cycles each) (fold (ratio)); higher = stronger signal-on switching upon ATP binding; sequences stand for … in TCGTCGGCAGCGTCAGATGTGTATAAGAGACAGTTTTTTTTTTTTTTTTTTTTTTTTT…TC
Details: aptamer strand: ATP DNA aptamer (quencher-CACCTGGGGGAGTATTGCGGAGGAAGG + anchor), 100 nM annealed; ATP concentration: 500 uM; one replicate
Procedure, shortened: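 After annealing to 100 nM quencher-labelled ATP aptamer, Cy3-labelled switching-strand clusters on a modified Illumina MiSeq flow-cell were imaged in selection buffer. A second image followed after 15 min with 500 uM ATP at 22 °C, and five such buffer/ATP cycles were done, each separated by NaOH stripping and re-annealing. The fluorescence ratio, averaged per switch-domain sequence, is summed target-cycle over summed buffer-cycle Cy3 intensity per cluster, with clusters outside 100-1000 RFU excluded.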
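Further: ATP exposure 15 min at 22 °C before imaging.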

Sequence	switch fluorescence ratio
GCCCCTATTC	1.04
CTCATTCCCT	1.04
CCCCGTCCTG	1.06
CCGGTTCTTG	0.982
CGGCGCAATG	3.05
CGGCATCTTT	0.968
GGGACAACGC	1.02
ACTATCTCTT	1.02
ATGTGAATGG	0.967
AGCTCTTGGA	0.999
ATTCAAGGCA	0.985
CCAAGGAGTT	0.986
TCCAGTTAAG	1.02
GCTCGTATAG	1
ATGCGCAGTT	1.01
TCTTCCGGGT	1.09
AAATCCTATC	1.04
GCGGAACGCT	0.996
GTTGTCACAT	0.977
TACGTTTATC	1
GTTACTGCCA	1.16
TATTAACATT	0.974
CATTGACCCC	1.11

Sequence	switch fluorescence ratio
CGTACCTTGC	2.49
GGTCAATTGT	1
CAGGATTCAG	1.02
GCGTGAATTG	1.01
GGTAATGTAT	0.979
CCTGCTGCCC	1.37
TGGCCTTTCC	1.69
ACACTGGAT	1
AGACCTGCAG	1.04
TCTGTCGGAG	1.09
TCTCCAACGG	1.29
ACAGCCTAT	1.03
AACTAGGCAT	1.01
AGGCCTTGAG	1
AGCCGTTCTT	1.03
AACCTTGAAT	0.973
ATCGGGCGCC	1
GCGACATCCG	1.03
CTTGAACGGG	0.996
CGTGTATTGT	1
CGACATGGAA	0.984
GGAAAGACCA	1.03
CGATAAAAGT	0.975

Sequence	switch fluorescence ratio
GCTACTACTC	1.57
ACGCCGGTTT	1.01
TCTGAGAACC	1.01
AAAATAGTAC	1.04
CTGGGGACG	0.816
TACTAATTCT	1.04
GACAGGTTAC	1.08
ATTATACGC	1
TCGAAAATAG	1.03
CAAACAAGGA	0.972
CCGAACAGCT	1.7
GTGGGTACCT	1.01
TGGGGTCGAG	0.995
TGGCGACGCG	1
TTAAGAGTAC	1.03
GCGCAGAGGC	1.06
AATTTTTATG	0.911
TGAGGTAAGA	0.988
TGTATAAATA	0.975
TTGGTGGGTC	1.03
ACGCGTATCC	0.944
AACAGCAAAT	1.04
TTTCAAATAA	0.959

Sequence	switch fluorescence ratio
CTTAATAAAG	0.969
AGTGGCTTCT	1.03
AGGCTCGAGA	1.03
AAGATGATTT	1.03
ATAATGTATT	0.96
TTGGCTGGGT	0.973
GGAGCGGCCG	0.943
CGGTAGACTC	1.04
TTCACTGTCA	1.07
GTTGACTTGT	1.01
CACAGGGACG	0.997
AGCCAACTGG	1.02
GGATTAAGGC	1.06
GATAAATTAT	1.01
AGCCGAGTT	0.975
GCTAGTACCG	0.968
CAGGTTTTGC	1.01
GGATAACGTT	1.01
CCGGCGGCAC	4.47
ATCAGGGAGA	0.993
TGGCATGTGG	0.986
TGTAGTAGTG	0.957
TTCAATCCTG	1.01

Sequence	switch fluorescence ratio
AGCGATCGGC	1.07
TCTGCTCTAT	1.03
ATCCTAATTT	0.99
CCTGCTATGA	1.33
AGTACCGATT	1.01
TTTGGTTGTC	1.02
CGCATGGTTG	1
ACGTTTATTT	1.05
ATAAGAAATG	0.987
ACATGTTCT	1.02
GCGACAGCGC	1.01
TAAGAAGGTA	1.01
CTCGCGCCCT	1.11
GGGCTGACTT	0.962
GTCATGCTCG	0.981
TTGGGGTACT	0.987
TGGGTTGCGA	0.982
AAGCGAATGT	0.974
TTCTAATC	1.06
GATCAGTAGG	1.02
ATCATACGGT	1.03
AATTATCGGG	0.97
GAAGGCTAGG	1.01

Sequence	switch fluorescence ratio
CAGGGAGTGT	1.03
GACAAAGGCA	0.974
TACGTATTCG	1.02
ATGGCTGTTC	0.988
TCTGGAGAAT	1.02
GCGCTTCCTG	1.02
GCGTCCTTAG	1.01
TCGATGACTA	0.995
CGCGCTTGCG	0.983
GTAATGAGTG	0.966
GCCATTGGGC	1.03
ACCGATGGGG	0.967
ATGTCATAGT	1.03
TAGCAGTCTT	1.01
TGAGTACTCC	1.01
AGTGTTTACC	1.09
TGGTTTTGCT	0.966
ACATAGCATT	1.24
TCCAGAACAA	1.28
GCGGCGTTCG	0.983
CGATTACGTG	1.04
GTATGGTTTT	1
TTACGTAGAA	1.09

Sequence	switch fluorescence ratio
TTTGACGCT	1.12
AATTTAACAA	0.964
GAGGGACTCG	0.993
ACCGCGGTCA	1.02
TATGAATTGC	1.08
TATCAGGGTG	1.08
CTCCAAGTTC	1.59
TCACATAGGG	1.03
ACTATCTAGA	1.02
CTGCTTGCTT	0.988
GGTCCTGCGT	1.03
AGCAAGAGTA	1.05
ACATAGATGA	1.04
CGGCTATTTG	1.02
TGGGTTGCAG	1
GGTAGACCAG	1
TGGTGGACAT	0.985
GAATTTTCGA	1.01
TAGATCCCGG	0.965
